# According to the antibiotic and cytotoxicity screens of Wong et al. (2023):
# Some of the results follow.
# Experiments:
# HSkMC = human skeletal muscle cells; test: cytotoxicity call (relative viability < 0.9); conditions: 10 µM
# HepG2 = test: cytotoxicity call (relative viability < 0.9); conditions: 10 µM
# S. aureus RN4220 = test: growth inhibition call (relative growth <= 0.2); conditions: 50 µM
Compound,cytotoxicity call (HSkMC),cytotoxicity call (HepG2),growth inhibition call (S. aureus RN4220)
C[C@@H]1CN([C@@H](C)CO)C(=O)c2cccc(NC(=O)C3CCOCC3)c2O[C@@H]1CN(C)S(=O)(=O)c1cn(C)cn1,inactive,inactive,inactive
CC(C)N(CCCNC(=O)Nc1ccc(C(C)(C)C)cc1)C[C@H]1O[C@@H](n2cnc3c(N)ncnc32)[C@@H](O)[C@H]1O,inactive,inactive,inactive
COc1ccc(NC(=O)Nc2ccc3c(c2)C(=O)N([C@H](C)CO)C[C@H](C)[C@@H](CN(C)C(=O)Nc2ccccc2)OCCCC[C@H](C)O3)cc1,inactive,inactive,inactive
Nc1nccs1,inactive,inactive,inactive
O=C(O)c1ccc2nncn2c1,inactive,inactive,inactive
C[C@H](CO)N1C[C@H](C)[C@@H](CN(C)C(=O)CCC(F)(F)F)OCCCC[C@H](C)Oc2ccc(NS(=O)(=O)c3cccs3)cc2C1=O,inactive,inactive,inactive
CC(C)NC(=O)Nc1ccc2c(c1)CC(=O)N([C@H](C)CO)C[C@H](C)[C@@H](CN(C)S(=O)(=O)c1cccs1)O2,inactive,inactive,inactive
C[C@@H]1CN([C@@H](C)CO)C(=O)c2cc(NC(=O)Nc3ccc(C(F)(F)F)cc3)ccc2O[C@@H](C)CCCCO[C@@H]1CN(C)C(=O)Nc1cccc2ccccc12,active,inactive,inactive
O=C(C[C@H]1C=C[C@H](NC(=O)Nc2ccc3c(c2)OCO3)[C@@H](CO)O1)NCCCN1CCOCC1,inactive,inactive,inactive
COc1ccc(S(=O)(=O)Nc2ccc3c(c2)C(=O)N([C@H](C)CO)C[C@H](C)[C@@H](CN(C)S(=O)(=O)c2ccc(OC)cc2)O3)cc1,inactive,inactive,inactive
C[C@H](CO)N1C[C@H](C)[C@@H](CN(C)S(=O)(=O)c2ccccc2F)Oc2cc(-c3ccncc3)ccc2S1(=O)=O,inactive,inactive,inactive
C[C@H]1O[C@@H](O[C@H]2[C@@H](O)C[C@H](O[C@H]3[C@@H](O)C[C@H](O[C@H]4CC[C@@]5(C)[C@H](CC[C@@H]6[C@@H]5C[C@@H](O)[C@]5(C)[C@@H](C7=CC(=O)OC7)CC[C@]65O)C4)O[C@@H]3C)O[C@@H]2C)C[C@H](O)[C@@H]1O,active,active,inactive
C[C@H](CO)N1C[C@H](C)[C@H](CN(C)CC2CC2)Oc2ccc(NS(=O)(=O)c3cccs3)cc2CC1=O,inactive,inactive,inactive
C[C@@H]1CN([C@H](C)CO)C(=O)Cc2cc(NC(=O)Nc3ccc(F)cc3)ccc2O[C@H]1CN(C)S(C)(=O)=O,inactive,inactive,inactive
C[C@@H]1CN([C@@H](C)CO)S(=O)(=O)c2ccc(C#CCN(C)C)cc2O[C@@H]1CN(C)C(=O)c1ccccc1F,inactive,inactive,inactive
CCCCC(=O)N1c2ccccc2[C@H](Nc2ccccc2)C[C@@H]1C,inactive,inactive,inactive
CCS(=O)(=O)N1CC[C@]2(CC1)CN([C@@H](CO)c1c2c2ccc(cc2n1C)OC)C(=O)c1cccc(c1)F,inactive,inactive,inactive
C[C@@H]1CN([C@@H](C)CO)C(=O)c2cc(NC(=O)CCCN(C)C)ccc2O[C@@H]1CN(C)Cc1ccc(Oc2ccccc2)cc1,inactive,active,inactive
C[C@@H]1CN([C@H](C)CO)C(=O)c2cc(/C=C/c3ccccc3)cnc2O[C@@H]1CN(C)C(=O)Nc1ccc(C(F)(F)F)cc1,inactive,active,inactive
CO[C@@H]1CN(C)C(=O)c2cc(NC(=O)C3CC3)ccc2OC[C@H](C)N(C(=O)C2CCOCC2)C[C@H]1C,inactive,inactive,inactive
COc1ccc(NC(=O)Nc2ccc3c(c2)C(=O)N([C@@H](C)CO)C[C@H](C)[C@H](CN(C)S(=O)(=O)c2ccc(F)cc2)OCCCC[C@@H](C)O3)cc1,inactive,inactive,inactive
C[C@@H]1CCCCO[C@@H](CN(C)C(=O)C2CCCCC2)[C@@H](C)CN([C@@H](C)CO)C(=O)c2cc(NC(=O)Cc3ccccc3)ccc2O1,inactive,inactive,inactive
C[C@@H]1CCCCO[C@@H](CN(C)S(=O)(=O)c2ccc(Cl)cc2)[C@H](C)CN([C@H](C)CO)C(=O)c2cc(NC(=O)CCC(F)(F)F)ccc2O1,inactive,active,inactive
Cc1noc(C)c1NC(=O)Nc1ccc2c(c1)C(=O)N([C@H](C)CO)C[C@@H](C)[C@H](CN(C)S(=O)(=O)c1ccc(Cl)cc1)OCCCC[C@H](C)O2,inactive,inactive,inactive
CN1CCN(C(=O)C[C@@H]2CC[C@@H]3[C@@H](COc4ccc(NC(=O)C5CCCCC5)cc4C(=O)N3C)O2)CC1,inactive,inactive,inactive
COCC#Cc1cnc2c(c1)C(=O)N([C@@H](C)CO)C[C@H](C)[C@H](CN(C)C(=O)Nc1cc(F)ccc1F)O2,inactive,inactive,inactive
COc1ccc([Si](C)(C)[C@H]2[C@H](CCn3cc([C@H](O)c4ccccc4)nn3)O[C@@]3(C(=O)N(Cc4cccc(N5C(=O)c6cccc7cccc5c67)c4)c4ccccc43)[C@@H]2C)cc1,inactive,inactive,inactive

Compound,cytotoxicity call (HSkMC),cytotoxicity call (HepG2),growth inhibition call (S. aureus RN4220)
C[C@@H]1CCCCO[C@@H](CN(C)S(=O)(=O)c2ccccc2)[C@H](C)CN([C@@H](C)CO)C(=O)c2cc(NC(=O)Nc3ccc4c(c3)OCO4)ccc2O1,inactive,inactive,inactive
C[C@@H]1CCCCO[C@@H](CN(C)Cc2ccccc2)[C@H](C)CN([C@@H](C)CO)C(=O)c2cc(NS(=O)(=O)c3cccs3)ccc2O1,inactive,inactive,inactive
Cn1c(=O)c2[nH]cnc2n(C)c1=O,inactive,inactive,inactive
CC(=O)N1CC2(CCN(CC(=O)N3CCOCC3)CC2)C[C@@H]1C(=O)O,inactive,inactive,inactive
C[C@H](CO)N1C[C@H](C)[C@@H](CN(C)S(=O)(=O)c2cn(C)cn2)Oc2ccc(NS(=O)(=O)c3cn(C)cn3)cc2C1=O,inactive,inactive,inactive
CO[C@H]1CN(C)C(=O)c2cc(NS(=O)(=O)c3ccccc3)ccc2OC[C@@H](C)N(C(=O)NC(C)C)C[C@H]1C,inactive,inactive,inactive
C[C@@H]1CCCCO[C@@H](CN(C)Cc2ccc(Cl)c(Cl)c2)[C@H](C)CN([C@H](C)CO)C(=O)c2cc(NS(=O)(=O)c3ccc(Cl)cc3)ccc2O1,active,active,inactive
C[C@@H]1CN([C@@H](C)CO)C(=O)Cc2cc(NC(=O)CCN3CCOCC3)ccc2O[C@H]1CN(C)CC1CC1,inactive,inactive,inactive
C[C@H]1CN([C@@H](C)CO)C(=O)c2cc(C#Cc3ccccc3F)cnc2O[C@@H]1CN(C)C(=O)C1CCOCC1,inactive,inactive,inactive
COc1ccc(S(=O)(=O)Nc2ccc3c(c2)C(=O)N([C@H](C)CO)C[C@@H](C)[C@@H](CN(C)S(C)(=O)=O)OCCCC[C@H](C)O3)cc1,inactive,inactive,inactive
C[C@@H]1CN([C@H](C)CO)C(=O)c2cc(NC(=O)Nc3ccc(F)cc3)ccc2O[C@@H](C)CCCCO[C@@H]1CN(C)C(=O)CCCN(C)C,inactive,inactive,inactive
C[C@@H]1CN([C@@H](C)CO)C(=O)Cc2cc(NC(=O)C3CC3)ccc2O[C@@H]1CN(C)C(=O)Nc1ccccc1,inactive,inactive,inactive
C[C@H]1CCCCO[C@@H](CN(C)Cc2ccncc2)[C@@H](C)CN([C@@H](C)CO)C(=O)c2cc(NC(=O)NC3CCCCC3)ccc2O1,inactive,inactive,inactive
C[C@@H]1CN([C@@H](C)CO)C(=O)Cc2cc(NC(=O)Cn3cnnn3)ccc2O[C@H]1CN(C)Cc1ccc2c(c1)OCO2,inactive,inactive,inactive
NCC[C@H]1CC[C@@H](NC(=O)c2ccccc2F)[C@@H](CO)O1,inactive,inactive,inactive
C[C@@H]1CN([C@@H](C)CO)C(=O)c2cc(NC(=O)Cn3cnnn3)ccc2O[C@@H]1CN(C)CC1CCCCC1,inactive,inactive,inactive
Cc1noc(C)c1NC(=O)Nc1ccc2c(c1)C(=O)N([C@H](C)CO)C[C@@H](C)[C@@H](CN(C)C(=O)C1CCCCC1)OCCCC[C@@H](C)O2,inactive,inactive,inactive
C[C@@H]1CN([C@@H](C)CO)C(=O)c2cc(C#Cc3cccnc3)cnc2O[C@@H]1CN(C)S(C)(=O)=O,inactive,inactive,inactive
Cc1ccc(S(=O)(=O)NCC[C@H]2CC[C@@H](NS(=O)(=O)c3ccccc3Cl)[C@H](CO)O2)cc1,inactive,inactive,inactive
C[C@H](CO)N1C[C@H](C)[C@H](CN(C)Cc2ccc(Cl)c(Cl)c2)Oc2ccc(NC(=O)Nc3ccc(F)cc3)cc2C1=O,active,active,inactive
CN1C(=O)c2cc(NC(=O)Cc3cccs3)ccc2OC[C@@H]2O[C@@H](CC(=O)NCCc3ccncc3)CC[C@@H]21,inactive,inactive,inactive
CN(C)[C@@H](CN)c1cccn1C,inactive,inactive,inactive
CCO[C@H]1OC(C(=O)N2CCN(Cc3ccc4c(c3)OCO4)CC2)=C[C@@H](c2ccc3c(c2)OCO3)[C@@H]1CCCO,inactive,inactive,inactive
S=C1SCN(Cc2ccccc2)CN1Cc1ccccc1,inactive,active,inactive
Cc1noc(C)c1NC(=O)Nc1ccc2c(c1)CC(=O)N([C@H](C)CO)C[C@@H](C)[C@@H](CN(C)Cc1ccc(C(F)(F)F)cc1)O2,inactive,inactive,inactive
CN(C)CCOC(=O)C(c1ccccc1)C1(O)CCCC1.Cl (configuration not stated),inactive,inactive,inactive
Cc1noc(C)c1S(=O)(=O)Nc1ccc2c(c1)C(=O)N([C@H](C)CO)C[C@@H](C)[C@H](CN(C)Cc1ccc3c(c1)OCO3)O2,inactive,inactive,inactive
